The list shows a part of the results. At the low end of the ranking the order means little.
The sequences below were run against SIX1-Q177R homeodomain (UniProt Q15475) (assay: universal protein binding microarray). Conditions: Universal all-10-mer PBM (8x60K, AMADID 030236), 300 nM GST-tagged protein, Alexa Fluor 488 anti-GST; buffer, salt, pH and temperature not stated; high values mean tight binding; most listed sequences are background and not binding sites; double strand, one strand shown.

Row | Sequence | binding signal [E-score]
1 | AAGCAACC | -0.245
2 | GAGTGCTA | 0.152
3 | TCCTTTCA | -0.165
4 | CCCCCAAA | 0.092
5 | GAGACAGC | -0.178
6 | ATGAAGCA | 0.00639
7 | CCCTTAAG | 0.0842
8 | ACAACCAT | -0.137
9 | TCATGGAA | -0.225
10 | TGTTTTAA | 0.0553
11 | ATGCCCTA | -0.225
12 | AGCCCTTA | -0.214
13 | GATGGTCC | -0.0954
14 | AACAGAGT | 0.102
15 | TAATTCTA | 0.136
16 | CCCATAGG | 0.132
17 | ACAACGGA | 0.0334
18 | GCCACCCC | 0.132
19 | CCACATTC | -0.198
20 | AGAAGATA | -0.164
21 | GGGGGACC | -0.0801
22 | GCCGTCGA | 0.00855
23 | CCTAATAC | 0.0255
24 | TTCTTAAA | -0.26
25 | AGCCAACG | -0.0941

Row | Sequence | binding signal [E-score]
26 | AGCGGTTC | -0.0712
27 | ATCTGGCC | -0.148
28 | ACCACCCT | 0.183
29 | ACGGCGCC | -0.144
30 | AATGAAAT | -0.289
31 | GGGTTGAC | 0.0762
32 | GTCGGCAC | 0.0296
33 | ATTCAAGC | -0.107
34 | GAAGCGGC | -0.089
35 | ATATAAGG | 0.015
36 | TTAGCGAA | -0.0255
37 | ACACCCCT | 0.475
38 | AGCGAGTA | -0.0533
39 | CAGAGAGC | -0.237
40 | AGCTCACC | -0.183
41 | AAACTTCT | -0.188
42 | AGGGAAGG | -0.0257
43 | ACATATTC | -0.163
44 | GAAGAGGA | -0.202
45 | CTCTTGCA | 0.0486
46 | TCCTCTCA | -0.0506
47 | AGTTGGCA | 0.0485
48 | ATTTTCTA | -0.214
49 | AAGTCTCT | -0.402
50 | GGTATAAA | 0.114

Row | Sequence | binding signal [E-score]
51 | AAGGTAAT | -0.0931
52 | CAGCCGGG | -0.0638
53 | AAGCTGGC | -0.213
54 | GTCGTCAA | -0.0525
55 | AACATCTA | -0.0849
56 | CCGGGTAA | 0.177
57 | AGAACAAT | -0.079
58 | CAAGCTTG | -0.2
59 | ATACTAAG | 0.0604
60 | ACCTTAAT | 0.0183
61 | CACGCTGA | 0.223
62 | AACGGATT | -0.185
63 | ATGGTGCG | 0.0606
64 | ACGGAGTA | 0.146
65 | CTAATCTC | -0.176
66 | TCGCCGAA | -0.148
67 | AGGGATGC | -0.043
68 | AGTCTGCG | -0.108
69 | CCATTGCG | -0.229
70 | AAAGAGAC | -0.00626
71 | CCCTGGGC | -0.168
72 | CCAATACA | 0.096
73 | AGGTATCG | 0.33
74 | CCAACATA | 0.0711
75 | AGGGAAGA | -0.128

Row | Sequence | binding signal [E-score]
76 | GAGTAAGA | 0.0475
77 | GTTGCAGA | -0.118
78 | CGTTGTGC | 0.0178
79 | GTGGGCCA | -0.245
80 | GAGCCACC | 0.0254
81 | CGGGGTAA | 0.235
82 | TAAGATAA | -0.0739
83 | AGAGGAAT | -0.0415
84 | CGCTAATA | -0.111
85 | CTAAGCTC | -0.0473
86 | GCGAACTA | -0.167
87 | CTGCGCGA | 0.0423
88 | CTTCTCGC | -0.0209
89 | GACTCGAA | -0.203
90 | AAGTAACT | -0.239
91 | ACTCGATA | 0.0671
92 | AATTGCTA | -0.025
93 | GCCTCGGA | -0.211
94 | CCTAATGC | -0.0597
95 | GTCAACCA | -0.0523
96 | AATGGCCT | -0.114
97 | CGCACGCG | 0.087
98 | AGACTCTG | -0.198
99 | AGAGACTA | -0.199
100 | CACCACAA | 0.214

Row | Sequence | binding signal [E-score]
101 | AATAAGTG | 0.0548
102 | CCGCTCCC | -0.107
103 | GCATTGAA | -0.253
104 | CGAGCGGC | -0.0884
105 | CGGACGAA | -0.0497
106 | CTCGCAAC | 0.0238
107 | CAATATGG | -0.0693
108 | GACCAAGA | -0.0393
109 | CATCTGGA | 0.00653
110 | ATTACTGA | -0.0971
111 | GTTCCAAA | -0.164
112 | CACCCCCA | 0.368
113 | CGTCCCGA | -0.137
114 | GCTCCAAA | -0.205
115 | GTTCCGAA | -0.0381
116 | CGAAAGGA | 0.0864
117 | ATGGACGG | -0.089
118 | AATGCTGT | -0.259
119 | CAACCCAA | -0.0185
120 | AAGAACGC | -0.162
121 | CGTGGGAC | 0.0256
122 | AAAGGAGT | 0.133
123 | GCGAAAGA | -0.273
124 | CTGGTATC | 0.274
125 | GTAAATCA | -0.144

Row | Sequence | binding signal [E-score]
126 | CAGCTATG | -0.258
127 | CGATCCCG | 0.115
128 | AAATATAA | -0.0248
129 | CTAATTTA | -0.207
130 | ACACCTCG | 0.453
131 | ATCCGCGA | -0.129
132 | AGCTTACC | -0.181
133 | AAGGTAGC | -0.0391
134 | GGCGCTAC | -0.223
135 | GTTCCGTA | 0.188
136 | GGATGCCA | -0.0544
137 | CTCCCCCC | 0.0235
138 | GGCAGTCA | -0.222
139 | TGAACCAA | 0.0123
140 | ACCTGGTA | 0.083
141 | CCCAGTAC | 0.144
142 | ACACACCC | 0.39
143 | AGAAAATG | -0.211
144 | CAATCCTA | -0.249
145 | ACCTGCAC | 0.121
146 | AATTGCAA | -0.345
147 | TCGACGAA | -0.0112
148 | ATTACAAA | -0.351
149 | GGCTGAAA | -0.143
150 | CGGAAAAC | -0.0631

Row | Sequence | binding signal [E-score]
151 | AAAAGCCC | -0.24
152 | GATAGGAA | -0.0843
153 | ATGCATTG | -0.0781
154 | GGCCACCA | -0.0538
155 | CTATACAC | 0.379
156 | CGGTAGAC | -0.0105
157 | AATCTCGG | -0.0614
158 | CACTGACA | 0.28
159 | AGATCCAG | 0.0405
160 | ATTCGAGA | -0.0138
161 | ACTAGTGA | 0.0644
162 | AACCGTAA | -0.153
163 | GATAGTTA | -0.0408
164 | CATCAGAG | 0.0727
165 | CTCGAACA | 0.0522
166 | CCGGTTTC | -0.0619
167 | CTATGCGC | -0.134
168 | CTTACAAC | -0.0585
169 | ACTCAATA | 0.12
170 | ATCTTGAA | -0.265
171 | GAGTAATA | 0.141
172 | ACGTTTAA | -0.323

From paper PMC10668032
